From publication PMC12040169 (PLOS Biology, 2025)
Some of the results follow.

tested on: T1, C. trachomatis L2/434/Bu expressing GFP (CTL2-GFP); set-up: species or system HeLa; C. trachomatis total inclusion area by high-content imaging, normalised to DMSO; details: total inclusion area; 28.5 h, 10 µM; inhibitor
T1 construct: L2/434/Bu GFP intracellular growth in HeLa cells
Procedure, shortened: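 Imaging read-out: GFP inclusions and Hoechst nuclei captured by high-content imaging after fixation. Inclusion area/number = chlamydial growth; nuclei count = host cell viability. MIC calculated per earlier method.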

Row | SMILES | % of control remaining
1 | Cc1nonc1NC(=O)CSc1nc2ccccc2[nH]1 [CBK269273] | 89.4509
2 | Fc1ccccc1CCOc1cncc(Cl)n1 [CBK176038] | 35.53
3 | CCOc1ccc(S(=O)(=O)NCCOC)cc1Cl [CBK270251] | 75.3362
4 | Cc1cc(OCC(O)CN2CCN(CCO)CC2)ccc1C(C)C (stereo not shown) [CBK278254C] | 102.66
5 | N#CCCn1cc(C(N)=O)c(-c2cc3ccccc3o2)n1 [CBK306204] | 57.0278
6 | CN1CCCN(C(=O)c2ccc(-c3nc(-c4ccc(C#N)cc4)cnc3N)cc2)CC1 [CBK107140] | 58.4865
7 | Fc1ccc(-c2cc(Nc3ccccc3)ncn2)cc1F [CBK090913] | 98.2392
8 | Cc1ccc(S(=O)(=O)NCCn2nc(C)c(C)c2C)s1 [CBK281502] | 104.072
9 | O=C(NC(c1ccccc1)c1ccccc1)C1(c2ccccc2)CCCC1 [CBK149536] | 86.3148
10 | CCCCc1ccc(N2C(=O)CC(Nc3ccc(C(=O)O)cc3)C2=O)cc1 (stereo not shown) [CBK296972] | 91.399
11 | COc1ccc(C(NC(=O)N(C(C)C)C(C)C)c2nccn2C)cc1 (stereo not shown) [CBK283568] | 69.3618
12 | Cc1c(C(N)=O)sc2ncn(CCc3ccccc3)c(=O)c12 [CBK268492] | 115.818
13 | Cn1cc(C(NC(=O)c2cn3ccsc3n2)C2CC(O)C2)cn1 (stereo not shown) [CBK307428] | 59.707
14 | CCOc1ccc(-c2ccnc(N3CCOC(CN)C3)n2)cc1C(=O)O (stereo not shown) [CBK307644] | 67.8528
15 | Cn1ncnc1CCNC(=O)N1CCCN(Cc2cccs2)CC1 [CBK307670] | 54.4197
16 | O=C(O)c1cc(C=Cc2ccc(OC(F)F)cc2)nc2ccccc12 [CBK297532] | 93.845
17 | COc1cc(C)ccc1S(=O)(=O)Nc1cc(OC2CCNCC2)c2occc2c1 [CBK074192C] | 95.3666
18 | O=C1CCC[C@]2(CN(C(=O)C3CC3)C[C@H]2c2ccccc2F)N1 [CBK283357] | 111.726
19 | COc1cc(-c2nnc(CSCc3n[nH]c(=O)[nH]3)o2)cc(OC)c1OC [CBK299814] | 120.969
20 | OCC1CCCN(Cc2c(C3CCCC3)[nH]c3ncccc23)C1 (stereo not shown) [CBK285332] | 121.145
21 | COCCn1c(SCc2c(C)nc3ccccn23)nc(C)c1C [CBK305212] | 102.676
22 | O=C(c1ccccc1Cl)N1CCN(c2ccc([N+](=O)[O-])c(NCc3cccnc3)c2)CC1 [CBK265866] | 65.1097
23 | O=C(N/N=C/c1ccc([N+](=O)[O-])cc1)c1ccc(O)cc1O [CBK261591] | 93.9699
24 | CC(C)c1ccc(S(=O)(=O)NC(C#N)c2ccccc2)cc1 (stereo not shown) [CBK044403] | 103.995
25 | O=C(Nc1ccccc1)N(Cc1nc(-c2ccccc2)no1)C1CCCCC1 [CBK269830] | 111.84
26 | CC(=O)Nc1ccc2nc(NC(=O)c3ccc(C)cc3)sc2c1 [CBK287304] | 112.672

Row | SMILES | % of control remaining
27 | CC(C)[C@@H](CO)n1c(=O)[nH]c2ncc(-c3ccco3)nc21 [CBK065018] | 85.1309
28 | CCCCSc1sc(C(=O)O)c(-c2ccc(Cl)cc2)c1C#N [CBK122551] | 53.3812
29 | CCOC(=O)c1c(NC(=O)CCC(=O)O)sc2c1CCCCC2 [CBK262648] | 101.656
30 | CS(=O)(=O)Nc1cc(-c2noc([C@@H]3CCCN3Cc3ccccn3)n2)ccn1 [CBK288885] | 107.372
31 | CCC(CC)C(=O)N1CC[C@H]2NC(=O)N(Cc3ccccc3)C(=O)[C@H]21 [CBK289291] | 107.723
32 | O=C(O)c1cn(C2CC2)c2cc(N3CCN(C(=O)Cc4ccsc4)CC3)c(F)cc2c1=O [CBK297142] | 12.1921
33 | Cc1ccsc1C(=O)N1CCC(c2nn(C)c3ncccc23)CC1 [CBK285102] | 91.9228
34 | O=C(CSC1=NC(=O)C(c2ccccc2)C(=O)N1)NC1CCCCC1 (stereo not shown) [CBK263804] | 116.297
35 | COc1ccc2c3c1CCC(C)(C)C3COC2CCN1CCN(c2ccc(F)cc2)CC1 (stereo not shown) [CBK024047C] | 40.3048
36 | Cc1ccc(-c2nccnc2OCCc2c[nH]c3ccccc23)cc1C [CBK106850] | 90.9019
37 | O=C(c1ccncc1)N1C2CCC1CC(c1ccc(F)cc1)C2 (stereo not shown) [CBK283763] | 93.8569
38 | O=S(=O)(NCc1ccccc1)c1cccc2nonc12 [CBK265692] | 94.1392
39 | O=C(Nc1ccccc1[N+](=O)[O-])c1cc(S(=O)(=O)NCc2ccco2)ccc1Cl [CBK264557] | 100.22
40 | CC(CCCC(C)(C)O)NCCO (stereo not shown) [CBK262340] | 77.2631
41 | COc1ccc(CCNC(=O)N2CCC(C(=O)O)CC2)cc1 [CBK156073] | 74.683
42 | CC(C)(CNC(=O)c1ccc(=O)n(CC(=O)Nc2ccc(F)cc2)c1)c1cccc(F)c1 [CBK285955] | 102.347
43 | COc1cccc2ncn(CCNS(C)(=O)=O)c(=O)c12 [CBK306583] | 52.5277
44 | c1ccc(-c2cnc3c(N4CCCC4)nc(-c4cccnc4)cn23)cc1 [CBK092245] | 102.872
45 | O=C(CCN1CCN(CCO)CC1)Nc1ccc(Cl)cc1 [CBK033787] | 103.367
46 | CN(C)c1ccc(Nc2cc(-c3ccc(OCc4ccccc4)cc3)ncn2)cc1 [CBK090941] | 92.7065
47 | CC(Oc1ccccc1)C(=O)NCCN1CCOCC1 (stereo not shown) [CBK263812] | 48.5372
48 | N#CC(C(=O)NC1CCCCC1)C(=O)c1nn(-c2ccccc2)c2c1CSc1ccccc1-2 (stereo not shown) [CBK017690] | 103.397
49 | Cc1ccc(C(=O)C(OC(=O)CN2C(=O)c3cccc([N+](=O)[O-])c3C2=O)c2ccccc2)cc1C (stereo not shown) [CBK265519] | 106.577
50 | CC(NC(=O)C1CCN(Cc2nccs2)CC1)c1ccc(F)cc1 (stereo not shown) [CBK148056] | 106.595
51 | CC(C)NC(=O)Cn1c(=O)n(Cc2cccs2)c2ncccc21 [CBK283900] | 99.4493
52 | O=C(CC(Nc1ccc2ccccc2c1)c1ccncc1)c1ccc(Br)cc1 (stereo not shown) [CBK262209] | 110.126
